Experimental data published in the GPR68 mutational scans of Howard et al. (2025).
The least precise scores are not listed. Not listed are two conditions whose scores span a narrow range. Read del as a deletion of the residues named and ins as an insertion between two positions. For some assays here: The concentration of ogerin is not given here.

B1: GPR68, Q15743 (parent)
chain: MGNITADNSSMSCTIDHTIHQTLAPVVYVTVLVVGFPANCLSLYFGYLQIKARNELGVYLCNLTVADLFYICSLPFWLQYVLQHDNWSHGDLSCQVCGILLYENIYISVGFLCCISVDRYLAVAHPFRFHQFRTLKAAVGVSVVIWAKELLTSIYFLMHEEVIEDENQHRVCFEHYPIQAWQRAINYYRFLVGFLFPICLLLASYQGILRAVRRSHGTQKSRKDQIQRLVLSTVVIFLACFLPYHVLLLVRSVWEASCDFAKGVFNAYHFSLLLTSFNCVADPVLYCFVSETTHRDLARLRGACLAFLTCSRTGRAREAYPLGAPEASGKSGAQGEEPELLTKLHPAFQTPNSPGSGGFPTGRLA

Experiments:
[1] = variants of: B1; test: cAMP reporter score (Enrich2 score, wild type = 0); higher = more signal; HEK293T, FACS bins
[2] = variants of: B1; test: surface expression score (Enrich2 score, wild type = 0); higher = more signal; HEK293T, FACS bins

Variant	cAMP reporter score ([1]; pH 5.5)	cAMP reporter score ([1]; pH 6.5, modulator: ogerin)	surface expression score [2]	cAMP reporter score ([1]; pH 6, modulator: ogerin)	cAMP reporter score ([1]; pH 6)
E103C	-0.011	-1.14	0.72	–	–
E103Q	-0.082	3.32	–	-0.119	–
E103M	-1.2	-1.8	1.14	-1.4	-0.963
E103I	-0.307	-1.2	1.39	-0.987	-0.472
E103P	-0.078	–	-1.39	-0.767	–
E103K	0.132	-0.786	1.71	-1.21	-0.767
E103D	-0.254	-0.847	-1	-0.381	-0.224
E103W	-1.42	-1.69	1.07	-1.13	-0.781
E103L	-1.03	-1.66	1.5	-0.609	0.115
E103V	-1.04	-1.27	3.7	-0.377	-1.33
E103S	-0.974	-1.27	0.73	-1.32	-1.04
E103N	1.24	2.41	1.39	1.03	2.71
E103Y	-1.43	-1.19	0.343	-1.31	0.181
E103G	-1.4	-1.56	0.184	-1.53	-0.999
E103F	-1.3	-1.06	1.6	-1.09	-1.2
E103H	0.031	3.75	0.414	1.44	–
L92_C94del	-1.75	-1.19	-2	-1.25	-0.656

Variant	cAMP reporter score ([1]; pH 5.5)	cAMP reporter score ([1]; pH 6.5, modulator: ogerin)	surface expression score [2]	cAMP reporter score ([1]; pH 6, modulator: ogerin)	cAMP reporter score ([1]; pH 6)
L92_S93insGS	-2.23	-0.971	-2.18	-1.96	-1.3
S93I	-0.524	-0.456	0.177	-0.836	-0.974
S93Q	-1.22	-1.75	0.083	-1.19	-0.918
S93R	-1.08	-0.779	0.948	-0.975	-0.498
S93P	-0.653	-1.41	-0.415	-1.71	-0.857
S93C	-0.2	-0.85	-0.156	-0.492	-0.726
S93F	1.26	–	-0.129	–	1.38
S93A	-0.453	2.99	-1.76	0.253	1.66
S93N	-1.7	-2.45	-2.05	-0.996	0.044
S93E	-0.493	-1.1	-0.64	-0.223	-0.818
S93H	-1.09	-0.894	-1.6	-0.998	-0.51
S93Y	-0.269	-0.431	–	–	–
S93V	0.513	0.202	0.948	1.03	-0.014
S93W	0.181	2.38	–	0.475	–
S93K	-1.14	-0.771	0.489	-0.799	-0.371
S93G	0.141	–	-1.78	-0.654	–
